About 4,300 (8.3%) of roughly 52,000 compounds were called active. Cut-off read from the data, not from the text of the source: active = survival mostly below about 52% (no sharp cut-off); inactive = mostly above about 56%. The list shows a part of the results.
System: DeltatarO mutant
Experiment: S. aureus survival, RN4220 and DeltatarO strains – OD600, teichoic acid synthesis inhibitors, primary screen (AID 463173)
Settings: S. aureus RN4220 wild type/DeltatarO growth, OD600, 18 h, stronger effect = lower value, screened at 18.75 µg/mL (by protocol)

Compound | survival
C#CCn1c(=O)n(-c2cccc(Cl)c2C)c(=O)c2c3c(sc21)CN(C(C)=O)CC3 | inactive: 73%
Cc1ccc(C)c(N2CCN(CCCNC(=O)c3cnn(-c4ccc(F)cc4)c3C3CCN(C(=O)OC(C)(C)C)CC3)CC2)c1 | inactive: 76%
CC(C)Oc1ccccc1NC(=O)CSc1nccn1C | inactive: 60%
OCCCn1c(-c2ccc(F)cc2)csc1=Nc1ccc(F)cc1 | active: 39%
Cc1ccc(-n2c(=O)c3c(c4cc(C)ccc4n3C)n(CC(=O)c3ccc(Cl)cc3)c2=O)cc1 | inactive: 116%
O=C(O)CSc1nc2ccc(NC(=O)COc3ccc(Cl)cc3)cc2s1 | inactive: 83%
O=C(Cn1c(=O)nc(-c2ccccc2)c2ccccc21)N1CCN(c2ccc(F)cc2)CC1 | inactive: 78%
COc1cc(OC)c(NC2=C(c3ccc(C(F)(F)F)cc3)C(=O)c3ccccc32)cc1Cl | inactive: 56%
O=C(CS(=O)(=O)c1cccc2nsnc12)NCc1ccccc1 | inactive: 72%
Cc1noc(/C=C/c2ccccc2F)c1S(=O)(=O)N1CCC(C(=O)NCC(C)c2ccccc2)CC1 (configuration not stated) | inactive: 95%
COc1cc(NC(=O)C(Cc2ccccc2)NS(=O)(=O)c2cccs2)cc(OC)c1 (configuration not stated) | inactive: 102%
CCOC(=O)c1c(NC(=O)c2cc(=O)c3cc(C)cc(C)c3o2)sc(C)c1C | active: 48%
Cc1ccc(-c2nn(CC(=O)NCc3ccccc3)c3c2cnc2ccc(F)cc23)cc1C | inactive: 75%
O=C(CSc1nccn1C1CCCC1)Nc1cc(C(F)(F)F)ccc1Cl | inactive: 78%
COc1ccc(OC)c(-n2c3c(cc(-c4nc(-c5ccc(Cl)cc5)cs4)c2=O)C(=O)CC(C)(C)C3)c1 | inactive: 75%
O=C(c1ccc2c(c1)N(Cc1ccccc1)C(=O)c1ccccc1S2(=O)=O)N1CCc2ccccc21 | inactive: 81%
Cc1c(NC(=O)C(C)(C)Oc2ccc(Cl)cc2)cccc1-c1nc2ccccc2o1 | active: 2%
Cc1ccc(NC(=O)c2ccc(CN3CC(=O)N4CCCCC4C3=O)cc2)c(C)c1 (configuration not stated) | inactive: 77%
Cc1ccc2c(=O)c(C(=O)c3ccc(F)cc3)cn(CC(=O)Nc3ccc4c(c3)OCCO4)c2n1 | inactive: 77%
COC(=O)c1ccccc1NC(=O)c1nc(-c2ccc(Cl)cc2)n2c1CCCCC2 | inactive: 113%
CCOc1cccc(C(=O)Nc2cc(C)c(O)c(-c3nc4ncccc4o3)c2)c1 | inactive: 64%
COc1cccc(Cc2nc3ccccc3nc2SCC(=O)N2CCCc3ccccc32)c1 | inactive: 131%

Compound | survival
CC(=O)c1cccc(NS(=O)(=O)c2cc3c(cc2C)n(C)c(=O)c(=O)n3C)c1 | inactive: 83%
CC1CCCN(CC(=O)Nc2ccc(C(=O)O)cc2)C1 (configuration not stated) | inactive: 89%
Cc1nc(Nc2ccc(S(N)(=O)=O)cc2)oc1C | inactive: 75%
Cc1cccc(NC(=O)C(=O)NCC(c2ccc3c(c2)OCO3)N2CCN(c3ccccc3)CC2)c1 (configuration not stated) | inactive: 99%
O=C(Nc1sc2c(c1C(=O)Nc1ccccc1)CCC2)c1ccc(Br)cc1 | inactive: 159%
Cc1cc(F)ccc1S(=O)(=O)Nc1ccc(O)c(Sc2ncn[nH]2)c1 | inactive: 111%
COc1ccccc1CNC(=O)CSc1ccc(-c2sc(-c3ccccc3)nc2C)nn1 | inactive: 27%
CN(C(=O)CSc1nnc(COc2ccccc2)o1)c1ccccc1 | inactive: 97%
O=S(=O)(c1ccc(Cl)cc1)c1nc(-c2ccco2)oc1SCc1ccccc1F | inactive: 62%
c1ccc(OCCSC2=NCCN2)cc1 | inactive: 72%
N#Cc1nc(-c2ccc(COc3ccccc3)o2)oc1N1CCN(c2ccccc2)CC1 | inactive: 60%
CCc1ccc(CNC(=O)c2cnc3sc(N4CCOCC4)nn3c2=O)cc1 | inactive: 78%
Cc1cccc(OC(=O)c2cc(-c3ccc(C)c(C)c3)on2)c1 | active: -2%
O=C1CCSC2(C(=O)N(Cc3ccc(F)cc3)c3ccccc32)N1c1ccc(Cl)cc1 (configuration not stated) | inactive: 101%
COc1ccc(Cl)cc1NC(=O)N1CCN(Cc2cc(=O)n3nc(-c4ccccc4)sc3n2)CC1 | inactive: 94%
O=C(Nc1cccn(Cc2ccccc2)c1=O)NC1CCCCC1 | inactive: 82%
COc1ccccc1CNC(=O)C(C)n1c(=O)cc(-c2ccccc2)c2c(C)nn(C)c21 (configuration not stated) | inactive: 84%
CCOC(=O)Cn1c(=O)oc2cc(S(=O)(=O)N3CCN(c4cccc(C)c4)C(C)C3)ccc21 (configuration not stated) | inactive: 71%
CC(=O)Nc1ccc2nc3c(=O)n(C)c(=O)n(C)c3nc2c1C | inactive: 80%
Cc1[nH]n(-c2nc(-c3ccccc3)cs2)c(=O)c1N=Nc1ccc(O)cc1 | inactive: 54%
CCSc1nsc(NC(=O)Nc2cccc(OC)c2)n1 | inactive: 96%
CC(C)c1nn2c(=O)cc(COC(=O)c3cccs3)nc2s1 | inactive: 75%

Compound | survival
CCCCNC(=O)c1c(N)no[n+]1[O-] | inactive: 83%
COc1ccc(C)cc1NS(=O)(=O)c1c(C(=O)N2CCC(C)CC2)c(C)n(C)c1C | inactive: 89%
COC(=O)c1ccc(NC(=O)CCCC(=O)OCC(=O)c2ccc(Cl)cc2)cc1 | inactive: 92%
Cc1ccc(-c2noc(-c3ccc(N4CCN(C)CC4)c([N+](=O)[O-])c3)n2)cc1 | inactive: 85%
O=C(COc1ccccc1)NCC(c1ccc(Cl)cc1)N1CCOCC1 (configuration not stated) | inactive: 68%
Cc1ccc(NC(=O)c2oc3ccc4c(c3c2C)C(=O)CC(C)(C)O4)c(C)c1 | inactive: 83%
COc1ccc(CCNC(=O)c2cccc(Nc3nc4ccccc4nc3-n3nc(C)cc3C)c2)cc1OC | inactive: 91%
O=C(CSc1n[nH]c(-c2ccc(F)cc2)n1)NCc1ccccc1Cl | inactive: 73%
COc1ccc(C2C=C(c3ccc(Cl)cc3)Nc3nc(-c4ccc(Cl)cc4)nn32)cc1 (configuration not stated) | active: 38%
CCOc1c(Br)cc(C2CC(=O)Nc3cc4c(cc32)OCO4)cc1OC (configuration not stated) | inactive: 127%
CCCS(=O)(=O)Nc1cccc(-c2cn3ccc(C)cc3n2)c1 | inactive: 62%
CCOc1ccc2c(c1)c(=O)c(S(=O)(=O)c1ccc(F)cc1)cn2CC(=O)Nc1ccccc1C | inactive: 96%
NC1=NC(c2cccc(Cl)c2)n2c(nc3ccccc32)N1 (configuration not stated) | inactive: 79%
CCOC(=O)c1cnn(-c2ccc(C(=O)Nc3ccc(C(C)=O)cc3)cc2)c1N | inactive: 102%
Cc1ccc(-c2csc(NC3OC(=O)c4c#cccc43)n2)cc1 (configuration not stated) | inactive: 94%
COc1cc2cc(CNc3ccccc3)c(=O)n(CC(=O)Nc3ccc(C)c(Cl)c3)c2cc1OC | inactive: 78%
CCOC(=O)c1c(S(=O)(=O)N2CCCC(C(=O)NCc3cccc(C)c3)C2)c(C)n(C)c1C (configuration not stated) | inactive: 91%
COCCN(Cc1ccco1)C(=O)c1cc2c(=O)[nH]c3ccc(C)cc3c2s1 | inactive: 53%
CN(Cc1ccccc1)S(=O)(=O)c1ccc(NC(=O)c2cc(=O)c3ccccc3o2)cc1 | inactive: 65%
CC(C)(C)NC(=O)CSc1nnc(Cc2ccc3c(c2)OCO3)n1C1CCCCC1 | inactive: 90%
CCc1cccc(C)c1NC(=O)CN1C(=O)C2(SCC(=O)N2c2cccc(F)c2)c2ccccc21 (configuration not stated) | inactive: 107%
Cc1ccccc1OCC(=O)NCC(c1ccc(Cl)cc1)N1CCCCC1 (configuration not stated) | inactive: 66%

Compound | survival
Cn1ncc2c(N3CCN(c4ccccc4F)CC3)ncnc21 | inactive: 99%
COc1ccc(C)cc1NC(=O)Nc1cccc(OCc2cc(=O)n3ccc(C)cc3n2)c1 | inactive: 94%
CCOc1ccc(/C=C/c2nc(C#N)c(NC(C)c3ccccc3)o2)cc1 (configuration not stated) | inactive: 69%
COc1ccc(C(=O)CC2(O)C(=O)N(Cc3cccc(C(F)(F)F)c3)c3ccccc32)cc1 (configuration not stated) | active: 33%
CC(=O)N1CCc2cc(Br)cc(S(=O)(=O)N3CCC(C(=O)Nc4ccc(C(C)C)cc4)CC3)c21 | inactive: 152%
COc1cccc(C(=O)N2c3ncnn3C3(CCCCC3)[C@@H]3CCCC[C@@H]32)c1 | inactive: 89%
COc1ccc(N2CCN(S(=O)(=O)c3ccc(-c4ccno4)cc3OC)CC2)cc1 | active: 6%
CCCCc1ccc(NC(=O)c2ccc3c(c2)CCN3S(=O)(=O)CC)cc1 | active: 38%
COc1ccc(CNC(=O)C(C)n2nc(C)c3c(C)n(-c4ccccc4)nc3c2=O)c(OC)c1 (configuration not stated) | inactive: 144%
CC(C(=O)Nc1ccc(OC(F)(F)F)cc1)N1Cc2ccccc2C1=O (configuration not stated) | active: 20%
Cc1oc(-c2ccccc2F)nc1CN1CCC(C(=O)NCCc2ccccc2)CC1 | inactive: 89%
CCCCn1cc(S(=O)(=O)c2cc(C)ccc2C)c(=O)c2cc(F)c(F)cc21 | inactive: 91%
CCOC(=O)c1cccc(NC(=O)c2oc3c(c2C)-c2nn(CC)cc2CC3)c1 | inactive: 75%
Cc1c(Cl)cccc1-n1ncc(C(=O)NC2CCCCC2)c1C1CCN(C(=O)OC(C)(C)C)CC1 | inactive: 94%
COc1ccc(Br)cc1[C@@H]1Nc2ccc(C(=O)O)cc2[C@@H]2C=CC[C@@H]21 | active: 36%
CCOc1ccc(CCNC(=O)CSc2nnnn2-c2ccccc2)cc1OCC | inactive: 131%
Cc1ccc(CNC(=O)Cc2csc3ccccc23)cc1 | inactive: 93%
Cc1cccc(N2CCN(S(=O)(=O)c3cc(C(=O)Nc4ccc(Oc5ccccc5)cc4)ccc3F)CC2)c1C | inactive: 75%
COc1ccc(OC)c(Nc2sc(C(=O)c3ccccc3)c(N)c2S(=O)(=O)c2ccccc2)c1 | inactive: 76%
Cc1ccccc1NC(=O)Cn1c(=O)n(CCc2ccccc2)c(=O)c2ccccc21 | inactive: 113%
Cc1cccc(Nc2c(-c3ccsc3)nc3nc(C)cc(C)n23)c1 | inactive: 130%

Reference: PubChem BioAssay AID463173 (ICCB-Longwood Screening Facility, Harvard Medical School, 2010)
